In assay [1] the target is T1, CCDC134 (wildtype), co-expressed in HEK293T cells (human) (UniProt Q9H6E4).
T1 sequence: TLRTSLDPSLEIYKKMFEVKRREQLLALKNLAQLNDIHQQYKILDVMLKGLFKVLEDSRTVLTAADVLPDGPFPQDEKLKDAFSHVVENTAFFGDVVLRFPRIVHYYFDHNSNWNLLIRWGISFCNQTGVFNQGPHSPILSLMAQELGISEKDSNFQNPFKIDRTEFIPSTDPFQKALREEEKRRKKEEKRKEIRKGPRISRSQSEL
As to the kind of experiment: co-IP; proteins co-expressed in HEK293T by transfection, harvested 24 h later; lysis and washes in E1A buffer (50 mM HEPES pH 7.4, 250 mM NaCl, 5 mM EDTA, 1% NP40); anti-V5 agarose, StrepTactin Sepharose or anti-Flag M2 gel, 3 h or overnight at 4°C; immunoblot.

Amino acid sequences for entries named in this document (tags omitted). Residues count along the entry.
UniProt P14625, residues 22-803: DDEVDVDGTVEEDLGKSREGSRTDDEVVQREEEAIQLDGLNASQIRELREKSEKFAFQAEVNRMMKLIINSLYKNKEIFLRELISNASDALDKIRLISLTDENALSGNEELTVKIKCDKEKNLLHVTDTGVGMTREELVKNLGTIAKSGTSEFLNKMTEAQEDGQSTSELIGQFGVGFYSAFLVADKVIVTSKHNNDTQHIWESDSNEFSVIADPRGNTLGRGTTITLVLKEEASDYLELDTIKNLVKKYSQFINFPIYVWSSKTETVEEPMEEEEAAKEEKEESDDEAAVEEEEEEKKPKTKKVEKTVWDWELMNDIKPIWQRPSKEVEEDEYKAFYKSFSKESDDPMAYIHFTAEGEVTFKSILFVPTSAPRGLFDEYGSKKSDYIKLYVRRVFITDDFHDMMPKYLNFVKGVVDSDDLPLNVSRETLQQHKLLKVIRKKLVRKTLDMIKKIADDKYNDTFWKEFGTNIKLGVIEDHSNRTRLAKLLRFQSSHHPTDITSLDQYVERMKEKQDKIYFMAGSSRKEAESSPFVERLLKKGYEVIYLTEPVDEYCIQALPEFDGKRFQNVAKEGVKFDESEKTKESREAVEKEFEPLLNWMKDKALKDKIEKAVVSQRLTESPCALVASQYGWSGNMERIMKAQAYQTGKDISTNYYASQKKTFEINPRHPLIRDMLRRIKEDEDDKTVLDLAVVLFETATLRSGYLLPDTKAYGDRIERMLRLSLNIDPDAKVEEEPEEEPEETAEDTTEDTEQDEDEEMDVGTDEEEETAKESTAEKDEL
UniProt P19438, residues 30-455: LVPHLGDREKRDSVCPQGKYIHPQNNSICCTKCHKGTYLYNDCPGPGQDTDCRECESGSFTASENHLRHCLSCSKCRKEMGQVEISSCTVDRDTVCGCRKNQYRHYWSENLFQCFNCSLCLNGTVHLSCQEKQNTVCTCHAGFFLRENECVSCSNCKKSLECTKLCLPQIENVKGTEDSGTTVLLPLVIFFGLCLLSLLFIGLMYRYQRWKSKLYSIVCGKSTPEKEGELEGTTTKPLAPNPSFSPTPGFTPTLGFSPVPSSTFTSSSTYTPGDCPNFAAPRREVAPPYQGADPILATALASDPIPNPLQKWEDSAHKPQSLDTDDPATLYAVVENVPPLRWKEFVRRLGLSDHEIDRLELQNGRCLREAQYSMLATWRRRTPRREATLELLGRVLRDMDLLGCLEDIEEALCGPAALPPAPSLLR

The target of assay [2] is T2, TLR7-V5, stably expressed in CAL-1 cells (UniProt Q9NYK1).
T2 sequence: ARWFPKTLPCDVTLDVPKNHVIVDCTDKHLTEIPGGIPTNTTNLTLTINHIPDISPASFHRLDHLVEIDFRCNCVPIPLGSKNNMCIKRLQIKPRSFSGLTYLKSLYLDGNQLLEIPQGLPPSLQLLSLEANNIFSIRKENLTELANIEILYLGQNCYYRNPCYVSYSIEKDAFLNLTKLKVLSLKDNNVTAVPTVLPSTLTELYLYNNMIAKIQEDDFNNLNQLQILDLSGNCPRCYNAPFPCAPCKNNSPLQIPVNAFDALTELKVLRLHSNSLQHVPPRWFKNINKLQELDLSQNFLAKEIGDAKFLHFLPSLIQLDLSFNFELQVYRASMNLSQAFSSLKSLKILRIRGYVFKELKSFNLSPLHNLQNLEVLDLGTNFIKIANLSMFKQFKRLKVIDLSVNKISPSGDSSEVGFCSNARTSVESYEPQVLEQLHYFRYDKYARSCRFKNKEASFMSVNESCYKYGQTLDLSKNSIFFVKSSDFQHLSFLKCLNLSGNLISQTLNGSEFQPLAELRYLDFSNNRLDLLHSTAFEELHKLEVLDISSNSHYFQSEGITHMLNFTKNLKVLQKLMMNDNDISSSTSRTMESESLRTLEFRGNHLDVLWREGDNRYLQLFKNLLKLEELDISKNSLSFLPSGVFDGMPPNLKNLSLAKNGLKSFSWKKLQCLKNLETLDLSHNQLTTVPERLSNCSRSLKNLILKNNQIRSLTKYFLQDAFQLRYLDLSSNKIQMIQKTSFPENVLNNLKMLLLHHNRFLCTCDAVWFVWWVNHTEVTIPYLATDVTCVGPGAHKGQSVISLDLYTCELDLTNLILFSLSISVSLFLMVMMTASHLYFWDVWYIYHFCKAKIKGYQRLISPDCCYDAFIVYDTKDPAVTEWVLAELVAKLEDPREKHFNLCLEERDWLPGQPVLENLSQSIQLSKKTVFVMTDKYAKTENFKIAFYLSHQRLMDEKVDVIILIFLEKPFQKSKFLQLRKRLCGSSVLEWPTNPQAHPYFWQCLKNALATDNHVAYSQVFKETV
As to the kind of experiment: co-IP; V5 immunoprecipitation from TLR7-V5-expressing CAL-1 lines (control, CCDC134 knockout, CNPY3 knockout), E1A buffer; endogenous Gp96 and CNPY3 detected by immunoblot.

Assay [3] concerns the target T3, Flag-CCDC134 (internal Flag tag), stably reconstituted in CCDC134 knockout CAL-1 cells (human) (UniProt Q9H6E4).
T3 sequence: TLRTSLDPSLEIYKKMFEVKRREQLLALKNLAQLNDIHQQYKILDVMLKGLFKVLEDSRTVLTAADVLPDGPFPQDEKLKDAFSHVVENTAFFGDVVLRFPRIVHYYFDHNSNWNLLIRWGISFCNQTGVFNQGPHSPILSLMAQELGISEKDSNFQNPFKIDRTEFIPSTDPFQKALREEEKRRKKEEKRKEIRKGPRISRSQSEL
Kind of assay: co-IP; Flag immunoprecipitation from sgCCDC134 CAL-1 cells stably reconstituted with Flag-CCDC134 (2-4 x 10^7 cells), E1A buffer; endogenous partners detected by immunoblot. Background: A western blot detects proteins with antibodies after separation by electrophoresis.

In assay [4] the target is recombinant Gp96-HA (human) (UniProt P14625). Kind of assay: co-IP; purified recombinant Flag-CCDC134 and Gp96-HA preincubated overnight at 4°C, resuspended in E1A buffer (50 mM HEPES pH 7.4, 250 mM NaCl, 5 mM EDTA, 1% NP40), anti-HA agarose beads 3 h at 4°C; immunoblot; both purified.

No constants are given. Whether binding was seen depends on the method and setting. For part of these data: In cells and extracts the contact can be indirect. Some binding calls cover weakened binding; strength is not graded here. For part of these data: Where a sequence is shown, tags or fusion partners need not be part of it.

Regarding “TNFR1-flag (from UniProt P19438 30-455) (receptor)”, the binding result in assay [1] was “no binding”.
In the case of “endogenous Gp96 in CAL-1 cells (from UniProt P14625 22-803)”, the binding result in assay [2] and in assay [3] was “binds” each time.
In the case of “Gp96 (wildtype), expressed in HEK293T cells (from UniProt P14625 22-803)”, the binding entry in assay [1] was “binds”.

B1: recombinant Flag-CCDC134 (protein, UniProt Q9H6E4 23-229)
chain: TLRTSLDPSLEIYKKMFEVKRREQLLALKNLAQLNDIHQQYKILDVMLKGLFKVLEDSRTVLTAADVLPDGPFPQDEKLKDAFSHVVENTAFFGDVVLRFPRIVHYYFDHNSNWNLLIRWGISFCNQTGVFNQGPHSPILSLMAQELGISEKDSNFQNPFKIDRTEFIPSTDPFQKALREEEKRRKKEEKRKEIRKGPRISRSQSEL
Consider B1, for which the binding entry in assay [4] is “binds”.

B2: CCDC134 (wildtype), co-expressed in HEK293T cells (protein, UniProt Q9H6E4 23-229)
chain: TLRTSLDPSLEIYKKMFEVKRREQLLALKNLAQLNDIHQQYKILDVMLKGLFKVLEDSRTVLTAADVLPDGPFPQDEKLKDAFSHVVENTAFFGDVVLRFPRIVHYYFDHNSNWNLLIRWGISFCNQTGVFNQGPHSPILSLMAQELGISEKDSNFQNPFKIDRTEFIPSTDPFQKALREEEKRRKKEEKRKEIRKGPRISRSQSEL
With B2, the binding result in assay [1] is on record as “binds”.

B3: TLR7, expressed in HEK293T cells (receptor, UniProt Q9NYK1 27-1049)
chain: ARWFPKTLPCDVTLDVPKNHVIVDCTDKHLTEIPGGIPTNTTNLTLTINHIPDISPASFHRLDHLVEIDFRCNCVPIPLGSKNNMCIKRLQIKPRSFSGLTYLKSLYLDGNQLLEIPQGLPPSLQLLSLEANNIFSIRKENLTELANIEILYLGQNCYYRNPCYVSYSIEKDAFLNLTKLKVLSLKDNNVTAVPTVLPSTLTELYLYNNMIAKIQEDDFNNLNQLQILDLSGNCPRCYNAPFPCAPCKNNSPLQIPVNAFDALTELKVLRLHSNSLQHVPPRWFKNINKLQELDLSQNFLAKEIGDAKFLHFLPSLIQLDLSFNFELQVYRASMNLSQAFSSLKSLKILRIRGYVFKELKSFNLSPLHNLQNLEVLDLGTNFIKIANLSMFKQFKRLKVIDLSVNKISPSGDSSEVGFCSNARTSVESYEPQVLEQLHYFRYDKYARSCRFKNKEASFMSVNESCYKYGQTLDLSKNSIFFVKSSDFQHLSFLKCLNLSGNLISQTLNGSEFQPLAELRYLDFSNNRLDLLHSTAFEELHKLEVLDISSNSHYFQSEGITHMLNFTKNLKVLQKLMMNDNDISSSTSRTMESESLRTLEFRGNHLDVLWREGDNRYLQLFKNLLKLEELDISKNSLSFLPSGVFDGMPPNLKNLSLAKNGLKSFSWKKLQCLKNLETLDLSHNQLTTVPERLSNCSRSLKNLILKNNQIRSLTKYFLQDAFQLRYLDLSSNKIQMIQKTSFPENVLNNLKMLLLHHNRFLCTCDAVWFVWWVNHTEVTIPYLATDVTCVGPGAHKGQSVISLDLYTCELDLTNLILFSLSISVSLFLMVMMTASHLYFWDVWYIYHFCKAKIKGYQRLISPDCCYDAFIVYDTKDPAVTEWVLAELVAKLEDPREKHFNLCLEERDWLPGQPVLENLSQSIQLSKKTVFVMTDKYAKTENFKIAFYLSHQRLMDEKVDVIILIFLEKPFQKSKFLQLRKRLCGSSVLEWPTNPQAHPYFWQCLKNALATDNHVAYSQVFKETV
For B3, in assay [1], the binding entry is listed as “binds”.

B4: UNC93B1, expressed in HEK293T cells (protein, UniProt Q9H1C4 1-597)
chain: MEAEPPLYPMAGAAGPQGDEDLLGVPDGPEAPLDELVGAYPNYNEEEEERRYYRRKRLGVLKNVLAASAGGMLTYGVYLGLLQMQLILHYDETYREVKYGNMGLPDIDSKMLMGINVTPIAALLYTPVLIRFFGTKWMMFLAVGIYALFVSTNYWERYYTLVPSAVALGMAIVPLWASMGNYITRMAQKYHEYSHYKEQDGQGMKQRPPRGSHAPYLLVFQAIFYSFFHLSFACAQLPMIYFLNHYLYDLNHTLYNVQSCGTNSHGILSGFNKTVLRTLPRSGNLIVVESVLMAVAFLAMLLVLGLCGAAYRPTEEIDLRSVGWGNIFQLPFKHVRDYRLRHLVPFFIYSGFEVLFACTGIALGYGVCSVGLERLAYLLVAYSLGASAASLLGLLGLWLPRPVPLVAGAGVHLLLTFILFFWAPVPRVLQHSWILYVAAALWGVGSALNKTGLSTLLGILYEDKERQDFIFTIYHWWQAVAIFTVYLGSSLHMKAKLAVLLVTLVAAAVSYLRMEQKLRRGVAPRQPRIPRPQHKVRGYRYLEEDNSDESDAEGEHGDGAEEEAPPAGPRPGPEPAGLGRRPCPYEQAQGGDGPEEQ
Turning to B4, the binding result in assay [1] was “no binding”.

B5: endogenous CNPY3 in CAL-1 cells (protein, UniProt Q9BT09 31-278)
chain: GPSQAGAEENDWVRLPSKCEVCKYVAVELKSAFEETGKTKEVIGTGYGILDQKASGVKYTKSDLRLIEVTETICKRLLDYSLHKERTGSNRFAKGMSETFETLHNLVHKGVKVVMDIPYELWNETSAEVADLKKQCDVLVEEFEEVIEDWYRNHQEEDLTEFLCANHVLKGKDTSCLAEQWSGKKGDTAALGGKKSKKKSSRAKAAGGRSSSSKQRKELGGLEGDPSPEEDEGIQKASPLTHSPPDEL
With B5, in assay [2], the binding result is “binds”.

The values above are taken from publication PMC11629888.
